The list shows a part of the results. Cleavage of a single-stranded DNA pool by Rep nickase domains was read by sequencing at 3 µM enzyme and 37 °C for 1 h; the strands have 90 letters, of which the middle is given. Numbers give uncut DNA relative to the enzyme-free pool, as log2; strong cutting gives strongly negative numbers. There is no active / inactive call. Reads are scaled to the total; where an enzyme cuts many sequences, the uncut ones exceed 0.
These sequences were tested on T1, Rep nickase domain of Muscovy duck circovirus (assay: uncleaved DNA left, log2 of reads against the no-enzyme library (log2 ratio); higher = less cleavage (more negative = more Rep cleavage of the k-mer); sequences stand for … in CTCGTCCG…ACCGGAGA).
T1 sequence (Rep 1-111, printed without the tag): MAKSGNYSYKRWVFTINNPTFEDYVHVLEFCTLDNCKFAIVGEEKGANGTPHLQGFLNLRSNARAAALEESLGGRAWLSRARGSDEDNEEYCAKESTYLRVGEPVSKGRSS
Procedure: (§1)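 A pool of 90-nt single-stranded DNAs with seven random bases just before the constant AC of the nick site (name = the seven bases) was cut by 3 µM recombinant His6-SUMO-tagged Rep nickase domain (300 nM DNA, 50 mM HEPES pH 8.0, 50 mM NaCl, 1 mM MnCl2, 1 h, 37 °C, three replicates). Uncut DNA was amplified and sequenced.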

Sequence | uncleaved DNA left (log2)
CCTCCGC | -0.0645
TAAGTGC | 0.0442
CGTTTTT | -2.56
CTCCCTA | -0.086
GCTAGAC | 0.0647
GATCTTG | 0.0883
CGATCCC | -0.125
CGCCCTA | -0.0644
TGCTCGT | -0.106
GCTACAG | 0.01
GGGGACG | 0.0428
CGGAAAT | -0.0155
AGTTCTG | -0.0454
CTGAATG | 0.167
CGGTTCG | 0.017
GTATGTT | -1.97
TCTCCCC | -0.24
CTGCCGT | -0.107
GCTGTCG | 0.124
TAGGAAT | -0.0734

Sequence | uncleaved DNA left (log2)
AGCGGTG | 0.0854
CCCCTCC | -0.0994
CTACGAA | 0.0489
TAAAAAT | -0.0449
TCAAATA | -0.00543
GCGGTAC | 0.077
GACCTCC | -0.0718
CGAGTCA | -0.0338
CAATGGT | -0.635
CTGATAC | -0.128
TTCAGAA | 0.151
ACCTCGC | -0.165
ACGCCTA | 0.125
CATTTCG | -0.0611
CAGATAT | -0.248
ACCCGCT | -0.217
GTACCAT | -0.0111
ACTAGGG | -0.0113
ACATATT | -3.58
ATTGTTT | -0.189

Each sequence was assayed on T2, Rep nickase domain of banana bunchy top virus in the same assay as above.
T2 sequence (Rep 1-94, printed without the tag): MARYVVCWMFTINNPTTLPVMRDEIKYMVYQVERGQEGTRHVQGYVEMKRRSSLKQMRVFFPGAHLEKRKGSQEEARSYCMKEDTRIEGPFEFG
Procedure: as §1

Sequence | uncleaved DNA left (log2)
CCTCCGC | -0.121
TAAGTGC | -0.0517
CGTTTTT | -0.306
CTCCCTA | -0.0679
GCTAGAC | 0.0603
GATCTTG | 0.0768
CGATCCC | -0.0147
CGCCCTA | 0.0377
TGCTCGT | -0.159
GCTACAG | 0.19
GGGGACG | 0.0524
CGGAAAT | 0.0831
AGTTCTG | 0.0117
CTGAATG | 0.184
CGGTTCG | 0.00983
GTATGTT | -0.127
TCTCCCC | -0.0684
CTGCCGT | -0.224
GCTGTCG | 0.0145
TAGGAAT | 0.0294

Sequence | uncleaved DNA left (log2)
AGCGGTG | 0.16
CCCCTCC | -0.177
CTACGAA | 0.00709
TAAAAAT | 0.0582
TCAAATA | -0.0396
GCGGTAC | 0.0318
GACCTCC | -0.209
CGAGTCA | -0.0109
CAATGGT | -0.086
CTGATAC | -0.00799
TTCAGAA | 0.105
ACCTCGC | -0.178
ACGCCTA | 0.0977
CATTTCG | -0.0889
CAGATAT | -0.217
ACCCGCT | -0.221
GTACCAT | 0.105
ACTAGGG | -0.00838
ACATATT | -1.35
ATTGTTT | -0.319

What follows are sequences tested on T3, Rep nickase domain of cabbage leaf curl virus in the same assay as above.
T3 sequence (Rep 1-116, printed without the tag): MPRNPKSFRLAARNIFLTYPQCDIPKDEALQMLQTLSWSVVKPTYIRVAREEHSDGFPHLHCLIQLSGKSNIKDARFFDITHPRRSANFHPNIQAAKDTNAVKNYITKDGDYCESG
Procedure: as §1

Sequence | uncleaved DNA left (log2)
CCTCCGC | -0.187
TAAGTGC | -0.578
CGTTTTT | 0.0628
CTCCCTA | 0.0132
GCTAGAC | 0.312
GATCTTG | -0.113
CGATCCC | 0.134
CGCCCTA | -0.0826
TGCTCGT | -0.189
GCTACAG | -0.249
GGGGACG | 0.867
CGGAAAT | 0.622
AGTTCTG | 0.00437
CTGAATG | 0.116
CGGTTCG | -0.786
GTATGTT | -0.55
TCTCCCC | 0.145
CTGCCGT | -0.513
GCTGTCG | 0.0477
TAGGAAT | 0.256

Sequence | uncleaved DNA left (log2)
AGCGGTG | 0.102
CCCCTCC | 0.0507
CTACGAA | 0.0504
TAAAAAT | -3.61
TCAAATA | -0.146
GCGGTAC | 0.652
GACCTCC | -0.0232
CGAGTCA | 0.0456
CAATGGT | -1.05
CTGATAC | -0.0374
TTCAGAA | 0.386
ACCTCGC | -0.791
ACGCCTA | -0.29
CATTTCG | -0.462
CAGATAT | 0.24
ACCCGCT | -0.672
GTACCAT | 0.351
ACTAGGG | -0.667
ACATATT | -1.88
ATTGTTT | -0.286

These sequences were tested on T4, Rep nickase domain of chickpea chlorotic dwarf virus in the same assay as above.
T4 sequence (Rep 1-124, printed without the tag): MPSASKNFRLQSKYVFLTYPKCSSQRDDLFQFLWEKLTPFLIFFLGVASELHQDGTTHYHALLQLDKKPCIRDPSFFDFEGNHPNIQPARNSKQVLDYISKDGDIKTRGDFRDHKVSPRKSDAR
Procedure: as §1

Sequence | uncleaved DNA left (log2)
CCTCCGC | -0.806
TAAGTGC | -1.34
CGTTTTT | -1.26
CTCCCTA | -0.82
GCTAGAC | 0.802
GATCTTG | -0.508
CGATCCC | 0.198
CGCCCTA | -0.508
TGCTCGT | -0.67
GCTACAG | -0.875
GGGGACG | 1.81
CGGAAAT | 1.51
AGTTCTG | 0.595
CTGAATG | 0.467
CGGTTCG | 0.00615
GTATGTT | -0.359
TCTCCCC | 0.0224
CTGCCGT | -0.704
GCTGTCG | 1.43
TAGGAAT | 1.28

Sequence | uncleaved DNA left (log2)
AGCGGTG | 0.589
CCCCTCC | 0.0396
CTACGAA | -1.09
TAAAAAT | -3.38
TCAAATA | -1.57
GCGGTAC | 1.16
GACCTCC | -0.0839
CGAGTCA | -0.285
CAATGGT | 0.389
CTGATAC | -0.572
TTCAGAA | 0.131
ACCTCGC | -0.713
ACGCCTA | -0.805
CATTTCG | 0.95
CAGATAT | -0.438
ACCCGCT | -1.43
GTACCAT | 0.986
ACTAGGG | -0.442
ACATATT | -3.27
ATTGTTT | -2.04

What follows are sequences tested on T5, Rep nickase domain of faba bean necrotic yellows virus in the same assay as above.
T5 sequence (Rep 1-98, printed without the tag): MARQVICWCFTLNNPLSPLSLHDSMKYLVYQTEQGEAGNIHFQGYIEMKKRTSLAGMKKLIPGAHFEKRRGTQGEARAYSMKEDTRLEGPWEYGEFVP
Procedure: as §1

Sequence | uncleaved DNA left (log2)
CCTCCGC | 0.0403
TAAGTGC | 0.0579
CGTTTTT | -0.00234
CTCCCTA | -0.0765
GCTAGAC | 0.0687
GATCTTG | 0.0507
CGATCCC | -0.0102
CGCCCTA | 0.0456
TGCTCGT | -0.0963
GCTACAG | 0.0601
GGGGACG | -0.00823
CGGAAAT | -0.0398
AGTTCTG | -0.126
CTGAATG | 0.21
CGGTTCG | -0.0761
GTATGTT | -0.107
TCTCCCC | 0.0693
CTGCCGT | -0.188
GCTGTCG | 0.0395
TAGGAAT | -0.0129

Sequence | uncleaved DNA left (log2)
AGCGGTG | 0.0212
CCCCTCC | -0.0727
CTACGAA | 0.113
TAAAAAT | 0.00268
TCAAATA | 0.1
GCGGTAC | 0.0676
GACCTCC | -0.0944
CGAGTCA | 0.0365
CAATGGT | -0.111
CTGATAC | -0.00328
TTCAGAA | 0.149
ACCTCGC | -0.177
ACGCCTA | 0.0886
CATTTCG | -0.0821
CAGATAT | -0.0677
ACCCGCT | -0.138
GTACCAT | -0.094
ACTAGGG | 0.0297
ACATATT | -0.171
ATTGTTT | 0.0185
